Measurements: paper PMC11777248
These are yes or no findings as the source states them, for the method shown. For some assays here: In cells and extracts the contact can be indirect. Some results given as binding are weak or reduced against the parent protein; the word gives no strength. Tags and fused reporters may be left off the sequences shown. Values belong to the molecule of their own block, whether it stands above or below them.

Tests used:
[1] = biological target: T1, SnRK2.4-nYFP (Arabidopsis) (UniProt P43291); test: split reporter; BiFC (split-YFP); SnRK2s-nYFP with ABI1-cYFP or At4g33920-cYFP, agro-infiltrated into N. benthamiana leaves, 48 hours in the dark, confocal microscopy
T1 sequence: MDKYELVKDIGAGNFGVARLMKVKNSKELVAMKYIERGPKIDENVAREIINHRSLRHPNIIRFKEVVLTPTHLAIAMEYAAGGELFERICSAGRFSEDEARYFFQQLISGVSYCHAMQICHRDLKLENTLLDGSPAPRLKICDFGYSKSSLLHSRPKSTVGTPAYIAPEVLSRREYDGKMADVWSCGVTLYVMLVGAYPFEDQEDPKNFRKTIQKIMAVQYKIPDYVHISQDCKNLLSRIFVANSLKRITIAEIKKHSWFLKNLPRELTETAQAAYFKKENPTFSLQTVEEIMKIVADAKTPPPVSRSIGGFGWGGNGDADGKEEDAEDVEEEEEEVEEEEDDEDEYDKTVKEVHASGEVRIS

[2] = biological target: T2, SnRK2.1-nYFP (Arabidopsis) (UniProt P43292); test: as above
T2 sequence: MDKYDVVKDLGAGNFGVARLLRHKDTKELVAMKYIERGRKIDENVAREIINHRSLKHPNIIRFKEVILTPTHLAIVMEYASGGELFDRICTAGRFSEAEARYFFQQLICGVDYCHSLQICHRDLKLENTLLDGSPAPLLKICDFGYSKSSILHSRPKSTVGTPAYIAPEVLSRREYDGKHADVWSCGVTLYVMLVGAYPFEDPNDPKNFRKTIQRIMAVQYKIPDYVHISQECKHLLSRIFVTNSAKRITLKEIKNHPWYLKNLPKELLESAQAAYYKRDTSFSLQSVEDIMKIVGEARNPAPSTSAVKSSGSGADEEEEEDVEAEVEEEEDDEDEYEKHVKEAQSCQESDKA

[3] = biological target: T3, SnRK2.1 nLUC fusion (Arabidopsis) (UniProt P43292); test: split reporter; split-LUC complementation; SnRK2s in pCAMBIA-35S-nLUC, PP2Cs in pCAMBIA-35S-cLUC; transient expression in N. benthamiana leaves, LUC activity read 2 days after infiltration with D-luciferin
T3 sequence: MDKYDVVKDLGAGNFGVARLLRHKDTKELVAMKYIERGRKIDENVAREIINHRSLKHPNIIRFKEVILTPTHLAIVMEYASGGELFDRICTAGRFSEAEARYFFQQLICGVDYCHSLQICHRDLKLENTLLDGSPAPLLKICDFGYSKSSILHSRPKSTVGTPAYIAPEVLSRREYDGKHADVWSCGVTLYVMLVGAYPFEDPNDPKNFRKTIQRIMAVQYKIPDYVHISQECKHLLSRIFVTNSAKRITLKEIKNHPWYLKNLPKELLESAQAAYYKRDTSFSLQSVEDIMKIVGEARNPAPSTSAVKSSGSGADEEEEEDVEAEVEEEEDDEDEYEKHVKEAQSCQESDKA

[4] = biological target: T4, SnRK2.4 nLUC fusion (Arabidopsis) (UniProt P43291); test: as above
T4 sequence: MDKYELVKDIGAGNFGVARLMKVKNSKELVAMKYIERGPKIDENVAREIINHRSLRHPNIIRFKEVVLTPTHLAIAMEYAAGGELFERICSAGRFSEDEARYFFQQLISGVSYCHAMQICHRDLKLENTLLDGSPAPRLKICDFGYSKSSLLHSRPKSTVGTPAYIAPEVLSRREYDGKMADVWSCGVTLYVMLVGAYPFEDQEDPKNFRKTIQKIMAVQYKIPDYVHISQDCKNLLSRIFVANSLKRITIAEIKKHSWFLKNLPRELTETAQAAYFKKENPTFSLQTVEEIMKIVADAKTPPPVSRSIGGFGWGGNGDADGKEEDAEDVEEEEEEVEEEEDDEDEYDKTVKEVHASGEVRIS

[5] = biological target: T5, SnRK2.5 fused to the GAL4 DNA-binding domain (Arabidopsis) (UniProt Q9FFP9); test: two-hybrid; SnRK2s in pGBKT7 (GAL4 DNA-binding domain), ABI1 in pGADT7 (GAL4-activating domain); Y2H Gold strain; growth of culture dilutions on SD -L-W-H, 3 days at 28°C
T5 sequence: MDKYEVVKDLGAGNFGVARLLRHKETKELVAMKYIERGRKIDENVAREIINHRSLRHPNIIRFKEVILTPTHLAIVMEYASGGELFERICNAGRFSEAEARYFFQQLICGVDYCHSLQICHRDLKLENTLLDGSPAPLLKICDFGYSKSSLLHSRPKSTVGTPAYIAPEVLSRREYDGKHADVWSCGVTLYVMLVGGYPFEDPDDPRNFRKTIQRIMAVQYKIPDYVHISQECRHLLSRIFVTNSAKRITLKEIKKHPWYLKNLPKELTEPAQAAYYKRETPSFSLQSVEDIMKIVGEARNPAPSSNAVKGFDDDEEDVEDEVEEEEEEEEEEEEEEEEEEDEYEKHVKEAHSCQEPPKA

[6] = biological target: T6, SnRK2.4 fused to the GAL4 DNA-binding domain (Arabidopsis) (UniProt P43291); test: as above
T6 sequence: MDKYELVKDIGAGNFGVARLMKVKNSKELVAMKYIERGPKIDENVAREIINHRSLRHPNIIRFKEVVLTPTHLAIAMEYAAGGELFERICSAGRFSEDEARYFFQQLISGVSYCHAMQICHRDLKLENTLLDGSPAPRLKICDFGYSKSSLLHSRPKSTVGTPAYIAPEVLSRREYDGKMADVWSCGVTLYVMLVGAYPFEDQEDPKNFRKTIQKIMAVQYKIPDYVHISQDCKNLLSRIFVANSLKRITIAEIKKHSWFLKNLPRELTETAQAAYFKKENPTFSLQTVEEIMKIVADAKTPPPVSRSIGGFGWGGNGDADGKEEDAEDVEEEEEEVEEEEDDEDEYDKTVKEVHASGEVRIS

[7] = biological target: T7, SnRK2.9 fused to the GAL4 DNA-binding domain (Arabidopsis) (UniProt O64812); test: as above
T7 sequence: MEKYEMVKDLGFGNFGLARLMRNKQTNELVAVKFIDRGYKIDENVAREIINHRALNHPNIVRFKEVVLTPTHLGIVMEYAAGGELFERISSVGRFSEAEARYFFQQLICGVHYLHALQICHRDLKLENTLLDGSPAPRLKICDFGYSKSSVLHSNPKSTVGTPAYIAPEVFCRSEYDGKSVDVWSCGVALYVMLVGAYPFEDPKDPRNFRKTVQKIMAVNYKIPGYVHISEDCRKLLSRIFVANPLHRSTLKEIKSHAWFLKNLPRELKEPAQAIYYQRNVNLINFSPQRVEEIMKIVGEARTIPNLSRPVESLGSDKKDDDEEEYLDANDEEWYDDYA

[8] = biological target: T8, SnRK2.1 fused to the GAL4 DNA-binding domain (Arabidopsis) (UniProt P43292); test: as above
T8 sequence: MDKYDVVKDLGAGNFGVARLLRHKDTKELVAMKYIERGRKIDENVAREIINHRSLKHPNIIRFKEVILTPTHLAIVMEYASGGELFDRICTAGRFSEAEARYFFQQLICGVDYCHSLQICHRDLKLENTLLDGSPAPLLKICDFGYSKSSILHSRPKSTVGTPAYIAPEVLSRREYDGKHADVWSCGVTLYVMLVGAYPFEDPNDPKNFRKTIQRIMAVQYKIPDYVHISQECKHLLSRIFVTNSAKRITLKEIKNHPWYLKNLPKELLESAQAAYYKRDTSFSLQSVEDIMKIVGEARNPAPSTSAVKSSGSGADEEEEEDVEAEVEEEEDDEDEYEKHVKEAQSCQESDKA

[9] = biological target: T9, SnRK2.10 fused to the GAL4 DNA-binding domain (Arabidopsis), Q9C958; test: as above; conditions: remark: other sources report otherwise
T9 chain: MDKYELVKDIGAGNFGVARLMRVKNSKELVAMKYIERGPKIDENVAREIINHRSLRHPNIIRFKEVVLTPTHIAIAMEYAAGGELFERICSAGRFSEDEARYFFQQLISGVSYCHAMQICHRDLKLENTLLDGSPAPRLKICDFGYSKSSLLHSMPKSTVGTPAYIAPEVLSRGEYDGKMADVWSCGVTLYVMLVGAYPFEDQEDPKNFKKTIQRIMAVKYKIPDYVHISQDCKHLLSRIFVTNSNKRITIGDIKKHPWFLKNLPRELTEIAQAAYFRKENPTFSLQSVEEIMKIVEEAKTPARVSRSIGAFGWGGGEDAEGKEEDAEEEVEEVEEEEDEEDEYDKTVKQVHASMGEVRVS

Molecule: ABI1-cYFP (from UniProt P49597 1-434) (enzyme)
binding [1]: binds
binding [2]: binds

B2: At4g33920-cYFP (enzyme, UniProt O81760 1-380)
chain: MLRALARPLERCLGSRASGDGLLWQSELRPHAGGDYSIAVVQANSRLEDQSQVFTSSSATYVGVYDGHGGPEASRFVNRHLFPYMHKFAREHGGLSVDVIKKAFKETEEEFCGMVKRSLPMKPQMATVGSCCLVGAISNDTLYVANLGDSRAVLGSVVSGVDSNKGAVAERLSTDHNVAVEEVRKEVKALNPDDSQIVLYTRGVWRIKGIIQVSRSIGDVYLKKPEYYRDPIFQRHGNPIPLRRPAMTAEPSIIVRKLKPQDLFLIFASDGLWEHLSDETAVEIVLKHPRTGIARRLVRAALEEAAKKREMRYGDIKKIAKGIRRHFHDDISVIVVYLDQNKTSSSNSKLVKQGGITAPPDIYSLHSDEAEQRRLLNVLY
binding [1]: no binding
binding [2]: no binding

The remaining lines, values ahead:

binding [3]: binds
binding [4]: binds
Molecule: ABI1 cLUC fusion (from UniProt P49597 1-434) (enzyme)

binding [5]: binds
binding [6]: binds
binding [7]: no binding
binding [8]: binds
Molecule: ABA-insensitive 1 (ABI1) fused to the GAL4-activating domain (from UniProt P49597 1-434) (enzyme)

binding [9]: binds
B1: ABA-insensitive 1 (ABI1) fused to the GAL4-activating domain, P49597 1-434 (enzyme)
chain: MEEVSPAIAGPFRPFSETQMDFTGIRLGKGYCNNQYSNQDSENGDLMVSLPETSSCSVSGSHGSESRKVLISRINSPNLNMKESAAADIVVVDISAGDEINGSDITSEKKMISRTESRSLFEFKSVPLYGFTSICGRRPEMEDAVSTIPRFLQSSSGSMLDGRFDPQSAAHFFGVYDGHGGSQVANYCRERMHLALAEEIAKEKPMLCDGDTWLEKWKKALFNSFLRVDSEIESVAPETVGSTSVVAVVFPSHIFVANCGDSRAVLCRGKTALPLSVDHKPDREDEAARIEAAGGKVIQWNGARVFGVLAMSRSIGDRYLKPSIIPDPEVTAVKRVKEDDCLILASDGVWDVMTDEEACEMARKRILLWHKKNAVAGDASLLADERRKEGKDPAAMSAAEYLSKLAIQRGSKDNISVVVVDLKPRRKLKSKPLN
